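Dose response: 5 concentrations. Exposure: 48 h. Format: 96-well plates. Endpoint: linear interpolation; highest concentration if not reached. GI50 is the concentration that inhibits growth by half. TGI is the concentration that stops growth completely.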
The compounds below were run on NCI-H322M lung (assay: growth of human tumour cells (NCI), 48 h).

Compound | GI50 [µM] | TGI [µM]
CCCC(C)c1cc(Cc2cc(Cl)cc(Cl)c2O)c(O)c(Cc2cc(Cl)cc(Cl)c2O)c1 (stereo not drawn) | 2.87 | 11.8
Cc1ccc(-c2cn3ccnc3c(-c3ccc(Cl)cc3)n2)cc1 | 2.26 | > 79.3
CCOC(CN=C=S)OCC | – | > 10
ONc1ncnc2nc[nH]c12 | – | > 100
CC1(C)C(=NNC(=O)C[N+](C)(C)C)C(C)(C)C1=NNC(=O)C[N+](C)(C)C | – | > 100
O=[N+]([O-])c1ccc(-c2csc3nc(-c4ccccc4)nn23)cc1 | – | > 100
O=C(Cc1ccccc1)NNc1nc(NNC(=O)c2ccncc2)nc(Nc2ccc([N+](=O)[O-])cc2)n1 | – | > 10
O=C(/C=C(\O)c1ccccc1)C(=O)NNc1ccc([N+](=O)[O-])cc1[N+](=O)[O-] | – | 63.7
CC(=O)OCC1OC(SC2=N/C(=C\c3cc4c(=O)c5ccccc5sc4s3)C(=O)N2c2ccccc2)C(OC(C)=O)C(OC(C)=O)C1OC(C)=O (stereo not drawn) | – | > 100
CCCc1[nH]c(SCCCCCCCCSc2nc(-c3ccc(F)cc3)c(CCC)[nH]2)nc1-c1ccc(F)cc1 | – | > 100
CN(C)CCCNC(CC#N)CCC#N (stereo not drawn) | – | > 10
Cc1ccc(C(=O)c2nnc(C(=O)c3ccc(C)cc3)nn2)cc1 | – | > 100
O=C1c2ccccc2S(=O)(=O)c2c1cccc2[N+](=O)[O-] | – | > 8.59
C#CCOCn1cnc2c(Cl)ncnc21 | – | > 100
COc1ccc(/C(C#N)=C/c2ccccc2OC)cc1 | 80.5 | > 100
O=Nc1c(O)cc(Nc2ccc(Br)cc2)c2ccccc12 | – | 3.86
C=CCOc1ccc(/C(N=Nc2ccc([N+](=O)[O-])cc2)=N/NC(=O)c2ccccc2)cc1OC | – | > 100
COc1ccc2sc3c(NCCCN(C)C)nc4ccccc4c3c(=O)c2c1 | 1.67 | 3.08
O=C1C=C2C(=NC34CCCCC3C(c3ccccc3)C3=C(c5ccccc5CC3)N24)c2ccccc21 (stereo not drawn) | – | > 10
CCOC(=O)C1(C(=O)OCC)Nc2cccnc2N(C)N1 | – | > 100
CC[C@H]1C=CCC[C@@]2(C[C@@H]3CC[C@@H]4[C@H](C(=O)OCCCCCCCCCCCCCCCC(=O)O)[C@]5(CCC[C@@H](C)O5)NC(=[N+]34)N2)O1 | – | 8.06
Cc1ccc(C2=Nc3cccc4cccc(c34)N2)cc1 | – | > 100
C=CCC[CH2][Sn]([c]1ccccc1)([c]1ccccc1)[c]1ccccc1 | 1.56 | 3.29
C[C@H](OCc1ccccc1)C(=O)N1CCS(=O)(=O)N2CCC[C@H]2C1=O | – | > 100
O=C1[C@H]2ON(c3ccccc3)C(c3ccccc3Cl)[C@H]2C(=O)N1c1ccc(Cc2ccc(N3C(=O)[C@@H]4ON(c5ccccc5)C(c5ccccc5Cl)[C@@H]4C3=O)cc2)cc1 (stereo partly drawn) | – | > 100

Compound | GI50 [µM] | TGI [µM]
OC(c1cc(-c2ccccc2)nc2ccc(Cl)cc12)C1CCCCN1 (stereo not drawn) | 2.31 | 6.04
N#CCc1nc2ccccc2c(=O)[nH]1 | – | > 100
COc1ccc2nc(N/N=C/C(C)=N/Nc3cc(C)c4cc(OC)ccc4n3)cc(C)c2c1 | – | 47.7
COc1cc(/C=C/c2cc(O)c3cc(C(C)=O)c(=O)oc3c2)cc2c1O[C@]1(C)CC[C@@H](O)C(C)(C)[C@H]1C2 | > 26.5 | > 47.1
COc1cc(Cn2c3ccccc3c3cc(C)c4c(c32)C=CC(C)(CCC=C(C)C)O4)cc2c1[nH]c1ccccc12 (stereo not drawn) | – | > 100
COc1ccc2c(c1)/C(=C\c1c(C)nc3sccn13)C(=O)N2 | 1.7 | > 100
O=C(NCCO)Nc1ccc(-c2nc(N3CCOCC3)c3cccn3n2)cc1 | 0.106 | 47
Cn1c(=S)[nH]c2sc3c(c2c1=O)CCSC3 | – | > 100
CCOC(=O)c1cc(NS(=O)(=O)c2ccccc2)cc(C(=O)OCC)c1 | > 100 | > 100
CC1C=C(OC(=O)c2ccccc2)C(=O)C(n2cc(F)c(=O)[nH]c2=O)O1 (stereo not drawn) | – | > 100
CSc1ncc2c(C#N)c3sc4ccccc4n3c(=O)c2n1 | – | > 100
O=C1CC(c2ccc(O)cc2)C2(O1)C(=O)OC(C(O)CO)C2O (stereo not drawn) | – | > 100
Cc1nc(N)nc(N)c1-c1ccc(Cl)c(Cl)c1 | – | > 100
COc1ccc(-c2nn3c(-c4cc(F)c(Cl)cc4Cl)nnc3s2)cc1 | 77.8 | > 100
Nc1ncnc2ccc(Sc3ccc4ncnc(N)c4c3)cc12 | – | > 100
CC(=O)OCOC(=O)CN(CC(=O)OCOC(C)=O)Cc1cc2c(cc1OC(C)=O)Oc1cc(OC(C)=O)c(CN(CC(=O)OCOC(C)=O)CC(=O)OCOC(C)=O)cc1C21OC(=O)c2ccccc21 | – | 8.91
Cn1cnc(CCc2ccccc2)n1 | – | > 100
O=c1cc(NNc2ccccc2)[nH]c(=S)[nH]1 | – | > 100
O=C(CCC(NC(=O)OCc1ccccc1)C(=O)OCc1ccccc1)Nc1ccc(OCc2ccccc2)cc1 (stereo not drawn) | – | > 31.6
CCNCCNc1c2ccccc2nc2ccccc12 | – | 4.98
COc1cc(OC(C)=O)cc2c(OC(C)=O)ccc(OC(C)=O)c12 | – | > 100
CC1SC(c2ccccc2)N(CCc2cccs2)C1=O (stereo not drawn) | 9.01 | 29.5
CN(C)CCCNC(=O)CCNC(=O)c1cc(NC(=O)c2cc(NC(=O)c3cc(NC(=O)c4nc(NC(=O)CCCNC(=O)c5cc(NC(=O)c6cc(NC(=O)c7cc(NC(=O)c8nccn8C)cn7C)cn6C)cn5C)cn4C)cn3C)cn2C)cn1C | – | > 100
COCCN(C(C)=O)C1CCC2(SCCS2)c2[nH]c3ccccc3c21 (stereo not drawn) | – | > 100
Nc1ccccc1C#C/C=C\C#Cc1cccs1 | 13 | 39.2

Compound | GI50 [µM] | TGI [µM]
O=C(COc1ccc2c(=O)cc(-c3ccccc3)oc2c1)N1CCN(c2ccccc2)CC1 | – | > 100
O=CC(=C(I)I)c1ccccc1 | – | 29.2
CCN(CC)c1ccc(C(=O)c2ccccc2C(=O)O)c(O)c1 | – | > 100
CCCCCCCCCCC(C(=O)O)C1(C(=O)O)CCC(=O)O1 (stereo not drawn) | – | > 100
CC(=O)Nc1cc([As](=O)(O)O)ccc1O | – | > 100
COC(=O)[C@H](C[C@H](Cc1ccccc1)NC(=O)c1csc([C@@H](C[C@H](C(C)C)N(C)C(=O)[C@@H](NC(=O)[C@H]2CCCCN2C)C(C)C)OC(C)=O)n1)NC(=O)OCc1ccccc1 | 0.00227 | > 9
N=c1oc2c(Cl)cc(Cl)cc2cc1C(=O)Nc1cccc2ccccc12 | – | 56.3
CCCCCCCCN=C(N)c1ccc(N2CCN(c3ccc(C(N)=NCCCCCCCC)cc3)CC2)cc1 | 1.44 | 4.33
COc1cc(C=C2C(C)=NN(c3cccc(Cl)c3)C23SCC(=O)N3c2nc3ccccc3s2)ccc1O (stereo not drawn) | – | > 100
c1ccc([P+](Cc2ccc(C[P+](c3ccccc3)(c3ccccc3)c3ccccc3)cc2)(c2ccccc2)c2ccccc2)cc1 | – | > 100
Nn1c(NNC(=O)C(=O)Nc2cc(Cl)c(Cl)cc2Cl)n[nH]c1=S | – | > 100
CCCCCCCCCCCCCCCCN1CC2CCCCC2C1 (stereo not drawn) | 21.8 | 37.7
CCSCCC(N)C(=O)O (stereo not drawn) | – | > 100
COc1ccc(/C=C2\NC(=S)N(CN3CCCCC3)C2=O)cc1 | – | > 100
CCCCCCCCCCCC(=O)Oc1c(Cl)cc(Cl)c(OC(=O)C(=O)Oc2c(Cl)cc(Cl)c(OC(=O)CCCCCCCCCCC)c2Cl)c1Cl | – | > 100
NC1C[C@H](n2cc(/C=C/Br)c(=O)[nH]c2=O)C[C@@H]1CO (stereo partly drawn) | – | > 100
CCOC(=O)CSc1nc(N)c2c(-c3ccc(OC)c(OC)c3)c3c(nc2n1)CCCC3 | – | > 100
CN(C)CC(=O)Nc1ccc(Cn2nnc3c2C(=O)c2nnn(Cc4ccc(NC(=O)CN(C)C)cc4)c2C3=O)cc1 | 0.224 | 0.935
COc1ccc(-c2c3c(N)nc(-c4ccncc4)nc3nc3c2c(C)nn3-c2ccccc2)cc1 | 81.4 | > 100
CCOC(=O)c1ccc(N=C2C(=S)N(c3ccc(C(=O)OCC)cc3)C(=N)N2/N=C/c2ccccc2)cc1 | – | > 100
O=C(CN1CCOCC1)Nc1nc(-c2ccc(Cl)cc2)cs1 | – | > 100
N=c1oc2cc(O)ccc2cc1C(=O)NCc1ccccc1 | – | > 100
CCOC(=O)C(=[N+]=[N-])C(=O)C1(C(=O)OCC)CCN(C(=O)c2ccccc2)C1=O (stereo not drawn) | – | > 100
NCCn1c(=O)[nH]c(=O)[nH]c1=S | > 100 | > 100
C=CCOc1ccc(/C(N=Nc2ccc(Cl)cc2)=N/NC(=O)c2ccccc2)cc1OC | – | > 100

Compound | GI50 [µM] | TGI [µM]
CCc1nccc2c1nc(-c1nonc1N)n2CC | 16.5 | > 25
Cc1ccc(N=Nc2c(O)c(C(=O)O)cc3ccccc23)cc1C | – | > 100
O=C(CCCN1CCC2(CC1)OC(=O)N(c1ccccc1)C2=O)c1ccccc1 | – | > 100
CC1SC2=NC3=C(c4ccccc4C3=O)C(c3ccc(F)cc3)N2C1=O (stereo not drawn) | – | > 100
N=C(N)c1ccc(-c2ccc(-c3cc(Cl)cc(Cl)c3)o2)nc1 | 1.74 | 3.36
NC(=O)N/N=C1\CCCCc2ccccc21 | – | > 10
CCOC(=O)c1nc2ccc(Cl)cc2c2c1Cc1ccccc1-2 | – | > 100
O=C1C(Cl)=C(OCCCCl)C(=O)c2c(O)ccc(O)c21 | – | 3.4
COC(=O)[C@@]1(C)CC[C@]2(C)CC[C@]3(C)C4=CC=C5C(=CC(=O)C(O)=C5C)[C@]4(C)[C@@H](O)C[C@@]3(C)[C@@H]2C1 | 13.1 | 25.1
COc1cccc(-c2c(C#N)c(N)nc3c2CCS(=O)(=O)c2ccc(C)cc2-3)c1 | – | > 100
CC(C)(Br)C(Br)CCC(C)(Br)C(Br)CO (stereo not drawn) | – | > 10
COC12OC3(C4OC41)C(C(=O)O[C@H]3CO[Si](C)(C)C(C)(C)C)C2C(=O)Oc1ccccc1 (stereo partly drawn) | – | > 100
CN1CCC(n2cnc(-c3ccc(F)cc3)c2-c2ccnc(NCCO)n2)CC1 | > 25 | > 25
COC(O)C(=O)c1c2c(cc3c1CC1(Cc4cc5c(cc4C1)CCC5)C3)CCC2 (stereo not drawn) | – | 28.5
Cc1[nH]ccc2c1[nH]c1cc(=O)ccc12 | – | > 100
CC1CNc2ccccc2N=C1NN (stereo not drawn) | – | > 100
C1C[OH+]CC[OH+]CCNCC[OH+]CC[OH+]CCN1.N.[Cl-].[Pt+4] | 20.4 | 69.8
NNC(=O)/C(=C/c1ccc(Cl)cc1Cl)NC(=O)c1ccccc1 | – | > 100
O=C(CSc1nnc(-c2ccc(N=Cc3ccc(Cl)cc3)cc2)o1)Nc1ccc(Cl)cc1Cl | – | 85.2
Oc1cccc2ccc(N/N=C/c3cc(CN4CCCCC4)c(O)c4ncccc34)nc12 | 0.467 | 4.41
CS(=O)(=O)N1CC(CCl)c2ccc([N+](=O)[O-])cc21 (stereo not drawn) | – | > 100
CN1CC[C@@]2(c3cccc(O)c3)CC(=O)/C(=C/c3ccccc3)[C@H]1C2 | – | 34.1
COc1cc(OC)c2c(c1)C(=O)C(CC(C)O)=CC2=O (stereo not drawn) | – | 31.3

Reference: PubChem BioAssay (NCI)
